Values joined by “and” are separate entries in the source; they are usually repeats but may differ in a detail not shown here. Identical values can stand only once. The campaign covered roughly 340,000 compounds. About 6,900 (2%) were called active. Cut-off read from the data, not from the text of the source: active = inhibition above about 30%; inactive = below that, where a call was filed. This is a selection; strong and weak results do not stand in their true shares. Entries without a call were filed so in the source.
These compounds were tested against D(2) dopamine receptor (Homo sapiens) (UniProt P14416) (assay: HTS Assay for Allosteric Antagonists of the Human D2 Dopamine Receptor: Primary Screen for Antagonists). Conditions: HEK293 TREx D2 cells, calcium flux, dopamine EC80; at 10 µM; stronger effect = higher value.
UniProt P14416, sequence (P14416 whole entry, looked up): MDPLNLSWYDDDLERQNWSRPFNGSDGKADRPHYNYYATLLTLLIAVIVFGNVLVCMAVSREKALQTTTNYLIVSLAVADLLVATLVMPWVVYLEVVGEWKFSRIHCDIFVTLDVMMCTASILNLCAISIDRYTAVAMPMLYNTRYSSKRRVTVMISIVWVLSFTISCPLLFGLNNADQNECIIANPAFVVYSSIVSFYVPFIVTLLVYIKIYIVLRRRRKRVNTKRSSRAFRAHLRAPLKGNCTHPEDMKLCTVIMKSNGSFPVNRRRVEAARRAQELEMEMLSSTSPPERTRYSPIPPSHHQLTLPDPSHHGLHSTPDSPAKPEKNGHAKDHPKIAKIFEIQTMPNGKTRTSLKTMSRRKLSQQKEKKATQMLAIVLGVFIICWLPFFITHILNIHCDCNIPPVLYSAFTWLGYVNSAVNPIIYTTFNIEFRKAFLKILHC
In short: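 In this primary screen, negative modulation is detected by tracking calcium flux after an EC80 dopamine challenge in inducible HEK293 T-REx D2 cells preexposed to test compound for 180 s.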
CC(NC(=O)c1ccc(CSc2nc3ccncc3n2Cc2ccc(F)cc2)cc1)c1ccccc1 (configuration not stated) was tested, and the inhibition was 5.57%.
O=S(=O)(c1ccccc1)c1nc(-c2cccs2)oc1N1CCCCC1 showed an inhibition of 10.2%.
Cc1ccc2c(c1)C(O)(CC(=O)/C=C/C=C/c1ccccc1)C(=O)N2 (configuration not stated) was tested, and the inhibition was active: 45.3%.
Work on Cc1cccc(OCCCSc2nc(-c3ccc(C(C)(C)C)cc3)nc3cc(=O)[nH]n23)c1C yielded an inhibition of 4.21%.
In the case of CCCCCN1CC(O)=C(c2nc3ccccc3[nH]2)C1=N, the inhibition is reported as active: 38.9%.
In the case of CCN(CC)S(=O)(=O)c1cc(C(=O)OCC(=O)NC2CCCc3ccccc32)ccc1C (configuration not stated), the inhibition is reported as active: 36.8%.
In the case of Cc1nn(CCC(=O)NCc2cccc(Br)c2)c(=O)c2nn(-c3ccccc3)c(C)c12, the inhibition is reported as 5.64%.
O=C(c1ccc(CS(=O)c2ccccc2Cl)o1)N1CCN(c2cccc(C(F)(F)F)c2)CC1 (configuration not stated) was tested, and the inhibition was 13.6%.
CC(C)OCCCn1c(SCC(N)=O)nc2c(sc3ccccc32)c1=O was tested, and the inhibition was -10.5%.
Work on O=C(NCCCCc1ccccc1)c1nn(-c2ccccc2F)nc1CO yielded an inhibition of 7.35%.
CCn1c(=O)c2sccc2n2c(CCC(=O)N3CCN(c4ccccc4OC)CC3)nnc12 showed an inhibition of 23.2%.
In the case of COc1ccc(-c2nnc(SCC(=O)Nc3ccccc3C)o2)cc1OC, the inhibition is reported as -4.07%.
With COc1ccc(CN2CCN(C(=O)c3ccco3)CC2)cc1OCc1ccccc1 the inhibition was active: 70.8%.
CC(C)NC(=O)Cn1ccc2cc(S(=O)(=O)N3CCCCCC3)ccc21 was tested, and the inhibition was -0.0928%.
COc1ccc(-c2cn(-c3ccc(C)cc3)c(S(=O)(=O)CC(=O)Nc3ccccc3)n2)cc1 showed an inhibition of -14.2%.
With CCOc1ccccc1CNC(=O)CCCN1C(=O)COc2ccc(C)cc21 the inhibition was -10.5%.
Cc1cc(Br)ccc1NC(=O)c1coc(=O)c2ccccc12 was tested, and the inhibition was 7.63%.
In the case of Cc1ccc(CNC(=O)CN(C)S(=O)(=O)c2ccc(Br)s2)cc1, the inhibition is reported as 10.8%.
With CC(C)c1ccccc1NC(=O)CSc1nnc(COc2ccccc2)o1 the inhibition was 8.67%.
Work on Cc1oc2ncn(CC(C)C)c(=O)c2c1C(=O)Nc1cccc(C(F)(F)F)c1 yielded an inhibition of -1.37%.
CCN1CCc2c(sc(NC(=O)Nc3ccc(Cl)c(Cl)c3)c2C(N)=O)C1 was tested, and the inhibition was active: 72.5%.
For O=C(O)Cc1sc(Nc2ccc(C(=O)O)cc2)nc1-c1ccccc1, the inhibition was -17.1%.
CCOC(=O)c1noc2ncn(CC(=O)Nc3cc(Cl)ccc3OC)c(=O)c12 gave an inhibition of 7.7%.
For O=C(Cn1cnc2onc(-c3ccc(F)cc3)c2c1=O)N1CCN(c2ccccc2F)CC1, the inhibition was -7.18%.
Work on COc1ccc2c(c1)CCc1c(C(=O)Nc3c(C)nn(Cc4c(Cl)cccc4Cl)c3C)noc1-2 yielded an inhibition of -2.71%.
With COc1cc(-c2nnc(NC(=O)CCS(=O)(=O)c3ccccc3)o2)cc(OC)c1OC the inhibition was active: 41.2%.
In the case of COc1ccccc1N1CCN(CCCNc2cc(=O)n(C)c(=O)n2C)CC1, the inhibition is reported as active: 64.1%.
O=C(c1cccs1)c1cn(CCOc2ccc(F)cc2)c2ccccc12 showed an inhibition of 13.1%.
With CCc1ccccc1NC(=O)c1cc2sc(Cl)cc2n1CC the inhibition was -3.9%.
Compound CCOC(=O)c1c(C)[nH]c(C)c1S(=O)(=O)NCC(=O)Nc1ccc(CC)cc1 has an inhibition of -1.23%.
Work on COc1cc(-c2nc3ccc(Cl)cn3c2Nc2ccc3c(c2)OCO3)ccc1O yielded an inhibition of -13.3%.
Compound Cc1ccc(NC(=O)c2cc(CN3CCOCC3)on2)cc1Cl has an inhibition of 1.73%.
In the case of Nc1nn(-c2ccccc2)nc1C(=O)OCc1ccccc1Br, the inhibition is reported as 6.44%.
In the case of CC1=C(C(=O)Nc2ccc(C)cc2Cl)C2(CCCCC2)OC1=O, the inhibition is reported as -9.03%.
With Cc1cc2c(cc1[N+](=O)[O-])NC(CNC(C)C)CC2 (configuration not stated) the inhibition was active: 64.8%.
With COc1cc2ccccc2cc1C(=O)Nc1cccc(-c2nc3ccccc3o2)c1 the inhibition was 9.9%.
Compound COc1ccc(N2CCN(C(=O)c3cn(C)c4ccc(S(=O)(=O)N(C)C5CCCCC5)cc4c3=O)CC2)cc1 has an inhibition of -5.58%.
For CC(C(=O)NCc1cccc(Br)c1)n1ncn2cccc2c1=O (configuration not stated), the inhibition was -12.9%.
In the case of Cc1ccc(NC(=O)c2c(C(=O)Nc3ccccc3)sc3nc(C)cc(=O)n23)cc1, the inhibition is reported as 13.2%.
Compound COc1ccc(CNC(=O)C2CCN(S(=O)(=O)c3c(C)noc3/C=C/c3cccs3)CC2)cc1 has an inhibition of 10.6%.
In the case of Fc1ccc(N2CCN(Cc3c[nH]c4ccccc34)CC2)cc1, the inhibition is reported as active: 92.8%.
For Cc1ccccc1NC(=O)CCOc1ccccc1, the inhibition was -8.39%.
In the case of CCCOc1ccc(C(=O)Nc2sc3c(c2C(=O)OCC)CCCCC3)cc1, the inhibition is reported as 17.4%.
O=C1CC(c2ccc(F)cc2)c2c(n3c(nc4ccccc43)[nH]c2=O)N1 (configuration not stated) showed an inhibition of -20.9%.
Compound CCc1ccc(CNC(=O)C2CCN(C(=O)c3ccc(-n4ccc5ccccc54)s3)CC2)cc1 has an inhibition of 3.41%.
With Cc1ccccc1CS(=O)(=O)c1ncc(Cl)c(C(=O)Nc2nnc(C(C)C)s2)n1 the inhibition was 11%.
With Cc1oc(-c2cccc(Br)c2)nc1CSc1nc2ncccc2[nH]1 the inhibition was -2.36%.
With Cc1cccc(N2CCN(C(=O)CN3C(=O)COc4ccc(S(=O)(=O)N5CCCC5)cc43)CC2)c1C the inhibition was -0.362%.
CCOc1ccc(CCNC(=O)Cn2nc(CC)n3c(cc4c(OC)cccc43)c2=O)cc1OCC was tested, and the inhibition was -4.86%.
With Cc1nn(CC(C)C(=O)N2CCN(S(=O)(=O)c3ccc(Cl)cc3)CC2)c(C)c1C (configuration not stated) the inhibition was active: 31.5%.
N#C/C(=C\c1c(Oc2ccc(F)cc2)nc2ccccn2c1=O)c1nc2ccccc2s1 was tested, and the inhibition was -26.4%.
With CCC(=O)OC1=CN(Cc2ccccc2)S(=O)(=O)c2ccccc21 the inhibition was -18.1%.
In the case of CC(C)c1ccc(NC(=O)CN2C=NS(=O)(=O)c3ccccc32)cc1, the inhibition is reported as -13%.
CCC(=O)C1=C(c2ccc(F)cc2)N(C(=O)CC)n2c(nnc2C2CCCCC2)S1 gave an inhibition of -5.15%.
In the case of Cc1cc(C)cc(NC(=O)CSc2nnc(CNC(=O)c3c(F)cccc3Cl)o2)c1, the inhibition is reported as -0.48%.
COC(=O)c1cc2oc(C)cc2n1Cc1ccc(C)cc1 was tested, and the inhibition was 0.12%.
Work on CCOC(=O)c1cc(OC(=O)c2cccc(F)c2)n(-c2ccccc2)n1 yielded an inhibition of 14.8%.
Work on CC(C)c1ccc(-c2noc(SCC(=O)N(C)c3ccc(F)cc3)n2)cc1 yielded an inhibition of 1.38%.
Compound CC(=O)N1CCCc2ccc(NC(=O)c3ccc(C(F)(F)F)cc3)cc21 has an inhibition of 12.8%.
Compound Cc1ccccc1-c1noc(-c2ccc(N3CCCC3)c([N+](=O)[O-])c2)n1 has an inhibition of -15.9%.
For CCOc1ccc(N(C(=O)c2ccc(OC)cc2)S(=O)(=O)c2ccc3c(c2)n(C)c(=O)n3C)cc1, the inhibition was -0.101%.
For O=C(NCc1cccnc1)C1CCN(Cc2cc3ccccc3n2Cc2ccccc2)CC1, the inhibition was -1.25%.
In the case of O=C(NCc1ccccc1Cl)C(=O)NCC(c1cccs1)S(=O)(=O)c1ccccc1 (configuration not stated), the inhibition is reported as 12.8%.
With O=c1cc(CN2CCN(C/C=C/c3ccccc3)CC2)c2cc(O)ccc2o1 the inhibition was active: 82.5%.
For N#C/C(=C\c1ccc(-c2ccc(Cl)c(C(=O)O)c2)o1)c1nc2ccccc2[nH]1, the inhibition was 9.82%.
Cc1ccccc1NC(=O)CN1CCc2ccccc2C1 was tested, and the inhibition was active: 40.1%.
COc1ccc2c(c1)Cc1sc(NC(=O)c3ccc(Cl)cc3)nc1-2 gave an inhibition of -8.79%.
Cc1cccn2c(=O)c3cc(C(=O)NC(C)c4ccccc4)c(=N)n(CCOCCO)c3nc12 (configuration not stated) gave an inhibition of -5.05%.
With CCOc1ccccc1N1CC(c2nc3ccccc3n2CCOc2ccccc2OC)CC1=O (configuration not stated) the inhibition was -8.38%.
Work on COc1ccc(-c2nnc(SCC(=O)c3ccc([N+](=O)[O-])cc3)o2)cc1OC yielded an inhibition of -6.09%.
In the case of CC(=O)N1CCc2cc(S(=O)(=O)CCC(=O)N3CCN(c4ccccc4F)CC3)ccc21, the inhibition is reported as 20.5%.
With Cc1cc(Nc2ccc(Cl)cc2)n2cnnc2n1 the inhibition was -10.8%.
COc1ccccc1Cc1nc2ccccc2nc1SCC(=O)N1CCCc2ccccc21 gave an inhibition of 13.3%.
Cc1ccccc1-c1noc(-c2cc(C(C)C)[nH]n2)n1 was tested, and the inhibition was -12%.
COc1ccc(Cl)cc1NC(=O)c1c(NCc2cccs2)sc2c1CCCC2 showed an inhibition of 3.89%.
With Cc1cccc(-n2ncc(C(=O)Nc3ccc4c(c3)OCO4)c2C2CCN(C(=O)OC(C)(C)C)CC2)c1 the inhibition was -1.84%.
In the case of Cc1ccc(S(=O)(=O)Nc2c(C)nc3nc(C)[nH]n3c2=O)c(C)c1, the inhibition is reported as -15.2% and active: 35.5%.
Oc1ccc(NCc2ccccc2OCc2ccccc2Cl)cc1 showed an inhibition of 5.7%.
For Cc1ccc(COc2cccc3cc(-c4noc(-c5ccc(C)cc5)n4)c(=O)oc23)cc1, the inhibition was 16.8%.
Cc1ccc(C(=O)c2oc3ccccc3c2NC(=O)COc2ccc(C(C)(C)C)cc2)cc1 was tested, and the inhibition was 1.51%.
Cc1ccc(NC(=O)Cn2cnc3c(oc4ccccc43)c2=O)cc1 was tested, and the inhibition was -4.34%.
CC(C)C(=O)c1cc2c(cc1NC(=O)c1ccccc1F)OCCO2 was tested, and the inhibition was 8.61%.
For COC(=O)c1ccc(NC(=O)CSc2nc3c(c(=O)n(C)c(=O)n3C)n2Cc2ccccc2)cc1, the inhibition was -7.28%.
Compound COc1ccc(C(=O)NCc2nnc(SCC(=O)Nc3ccc(F)cc3)n2-c2ccccc2)cc1 has an inhibition of -14.3%.
Cc1ccc(Cn2c(C)c3cnn(CC(=O)N4CCN(c5ccc(F)cc5)CC4)c(=O)c3c2C)cc1 showed an inhibition of -12%.
O=C(/C=C/c1ccccc1)N1CCN(Cc2cc(=O)n3nc(-c4ccccc4Cl)sc3n2)CC1 showed an inhibition of 9.76%.
Compound COc1cc(OC)c(NC(=O)c2cn(C)c(=O)c3cc(OC)c(OC)cc23)cc1Cl has an inhibition of 0.108%.
Cc1ccc(O)c(NC(=O)CCSc2nc(-c3ccco3)cc(C(F)(F)F)n2)c1 showed an inhibition of 10.3%.
COc1ccc(Cl)cc1NS(=O)(=O)c1c(C)[nH]c(=O)[nH]c1=O showed an inhibition of -3.5%.
For O=C(CN1C(=O)C2(SCC(=O)N2c2ccc(Cl)cc2)c2ccccc21)NCCc1ccccc1 (configuration not stated), the inhibition was 0.151%.
With CC1Cn2cc(C(=O)Nc3ccccc3C(F)(F)F)c(=O)c3c(Cl)ccc(c32)O1 (configuration not stated) the inhibition was 22%.
Work on CC(C)Oc1ccc(C(=O)Nc2nc3c(s2)CC(C(C)(C)C)CC3)cc1 (configuration not stated) yielded an inhibition of -3.23%.
Compound O=C(NCC(c1ccc2c(c1)OCO2)N1CCN(c2ccccc2)CC1)c1ccccc1 (configuration not stated) has an inhibition of -17%.
Cc1oc2ncn(CC(C)C)c(=O)c2c1C(=O)N(Cc1ccccc1)C(C)C was tested, and the inhibition was -8.82%.
In the case of Cc1nc2nc(C(F)(F)F)[nH]n2c(=O)c1Cc1ccccc1, the inhibition is reported as 7.9%.
Compound CCOC(=O)c1nnn(CC(=O)NC(=O)Nc2ccc(F)cc2)c1C(=O)OCC has an inhibition of -3.44%.
Work on COc1ccc(CNC(=O)c2ccc3c(c2)N(Cc2ccccc2)CCS3)cc1 yielded an inhibition of 3.48%.
Note: 0% is about no effect.
